The full ranking holds about 33,000 sequences; the median of “E-score (-0.5 to 0.5)” is about -0.017, and the highest 2% start at about 0.3. The list shows a part of the results.
Molecular target: T1, Sut1 (UniProt P53032)
T1 sequence: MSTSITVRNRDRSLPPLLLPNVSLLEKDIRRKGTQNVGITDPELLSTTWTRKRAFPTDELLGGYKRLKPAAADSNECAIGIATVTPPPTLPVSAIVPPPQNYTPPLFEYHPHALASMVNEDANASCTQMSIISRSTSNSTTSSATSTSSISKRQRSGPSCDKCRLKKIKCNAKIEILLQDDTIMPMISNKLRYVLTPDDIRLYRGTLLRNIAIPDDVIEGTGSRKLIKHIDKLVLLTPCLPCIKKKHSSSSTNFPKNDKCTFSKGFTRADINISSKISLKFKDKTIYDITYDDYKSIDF
Test: PBM E-score (8-mer binding enrichment) (E-score (-0.5 to 0.5)); higher = stronger / more preferred TF binding; most listed sequences are background and not binding sites
Details: protein concentration: 200 nM; construct: GST-full length
How it was run: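 Each ungapped eight-base word and its reverse complement, pooled, received an E-score from the Universal PBM Analysis Suite. Underlying scans, normalised with masliner, recorded fluorescent anti-GST bound to GST-tagged yeast transcription factors. These were applied at about 100-200 nM to universal all-10-mer Agilent arrays double-stranded by primer extension.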

Sequence | PBM E-score
CGTCCGCA | -0.177
ACGTTTCC | -0.00725
CGCTCCAA | -0.179
CGCTCGTC | -0.196
ACTGCACG | -0.178
AACCGATG | 0.00872
ACGATGAC | -0.0249
CGCGTCCG | -0.0607
GCCCGACA | -0.106
AATGAGCC | -0.184
AAATGTCT | 0.103
GTCAATCA | -0.0403
CCAAGATC | -0.0417
ATCTTCCC | 0.0466
AAAGCTGC | -0.222
ATGCCTCG | -0.0517
ACCGGGCA | -0.0525
AACGGTGG | -0.0614
CATAAGAG | 0.0118
AGAAGCTC | 0.0829
GGAGTGCC | 0.269
CATGCAGC | -0.151
AGAGAGGG | -0.248
AAATATAC | 0.217
GTTCTCCA | -0.0147

Sequence | PBM E-score
AACTAGTT | 0.119
CGTATGGA | 0.00471
CGACCAAA | 0.118
CCATATAG | -0.0893
TAGGTGGA | 0.0312
GGATCATA | -0.236
ATTAATGG | 0.193
ATATACCA | 0.0726
GCTGAGTA | -0.204
GGCTAACA | -0.0749
ACTCGTAC | -0.0551
ATTAACTA | 0.195
CCAACTGG | -0.0126
ATACCGAC | -0.0668
CCCCGATA | 0.15
CTCGTGGC | -0.118
GGTGAACC | -0.0876
CCCTTAAG | -0.0359
AGTCTATC | -0.223
AGTTAGAA | 0.133
CCGGTGTA | 0.136
AACGGCCT | -0.143
CCTAAGTA | 0.0747
CTAAAAGA | 0.0411
GCTTATCA | -0.0628

Sequence | PBM E-score
ATCCGATC | 0.18
TATATTGA | 0.332
ACAACATC | 0.128
AATAACGC | -0.122
CGATCCAA | -0.0863
CTATGTAA | 0.0452
ATCGAATG | -0.067
AGCACTAT | -0.0409
GAGGAGTA | -0.0389
GCAACGTA | -0.127
CACACTTA | 0.115
AGGCCTGA | -0.158
AGTGGCTG | -0.0943
ACGTTCAT | 0.0519
GGGCCAGA | -0.158
GACACCCA | -0.118
AAGAATCT | -0.016
GATCTCCA | -0.0913
ACTCTTAG | -0.21
GAACCAAC | 0.064
GATATCGA | 0.0354
ATCCGCCA | -0.133
GATACGAC | 0.0584
GGCTTCCC | -0.108
AGGTCGAT | 0.0792

Sequence | PBM E-score
GTGCCTTA | -0.122
GTTTAACA | -0.00835
AGTACCTC | -0.189
AGTGATAC | 0.0417
ATGTCTAA | 0.0635
GAACAGGA | -0.116
CAAGTTGC | 0.0786
CCTCCACA | -0.161
GGTTCCCA | -0.185
GGAATGAC | 0.0694
CGCCGTTA | -0.0973
AAATCAGT | 0.0371
ATTGGAGC | -0.0294
ATAACCAC | -0.0445
GTCACGAC | -0.0628
CCCAACAG | -0.21
ACGTTAGA | -0.00513
CAGACGAC | -0.213
CAAACGCC | -0.15
AAGTCACA | -0.0682
GAACTCCC | 0.0319
ACTTTATC | 0.151
GGAGCTTA | 0.21
GGGCCTCA | -0.224
ACCGACTA | -0.0779

Sequence | PBM E-score
AGCTGCAA | -0.122
GGGTGGAC | -0.153
GACCCCGA | 0.0897
CGATTTGA | 0.0307
CTAATTGC | 0.146
CAGCGCCC | -0.26
GGGTCTCA | -0.276
GTCGGCAA | -0.104
CCTGTTGC | -0.0841
CCGAGCGA | 0.117
CAAATGCC | -0.00698
AAGACCCG | -0.11
AATAGGCT | 0.046
GGGATAAC | 0.0828
AACAGCGC | -0.178
ACAACTAG | 0.0486
GGTTCCAA | 0.194
AAGCCTCA | -0.00984
TCTCCTAA | 0.113
ACTCCTCC | -0.0972
AGGCATGA | -0.187
TCGAAAAA | 0.206
ACGTAAAC | -0.161
TACTTCGA | 0.196
AAACCGTC | -0.0399

Sequence | PBM E-score
AATGCTAT | 0.0359
GGGCTAGA | -0.179
CAGCCTTC | -0.18
AGTCCCGC | -0.152
ACGTTGGA | -0.147
GTACTGGA | -0.0147
GAGTCTGC | -0.144
AAGCTGTC | -0.141
CCCTAACA | 0.071
GAACGTAA | 0.163
AGGGACGC | -0.212
ACCTGCGC | 0.0264
AGGCATCG | -0.203
CCAAGTAC | -0.134
AGGCCCTC | -0.127
AACGAGAT | 0.0198
GATTCTCA | 0.0723
AGAACGTC | -0.0575
AAAACACT | 0.118
CTTCACTC | 0.0242
GGCTTACC | -0.188
CGTTAAGC | 0.125
GAGGGCCA | -0.136
AAAACGCC | 0.16
ACCTCTTC | -0.0745

Sequence | PBM E-score
GCTATCTA | -0.0136
CTGTTGCA | 0.00754
AGACTGGC | -0.272
GACCTCAC | -0.0574
CATCGTTA | 0.0603
ATTCATTA | 0.284
CATTGTGG | -0.11
TCCCAGCA | -0.0226
CGGTATAA | 0.109
CGGTTAAC | -0.0549
ATATCCTG | -0.11
AGGCCTAC | -0.148
AAGCCGTG | -0.141
CGGGTTTC | 0.0845
AACAGATT | 0.0949
GTCATGGA | -0.161
TAGCCGCA | -0.119
AGAAAACA | 0.229
ACAAATGC | 0.0432
CGGAAACC | 0.139
AAAGGACA | 0.0759
AACGGGGT | 0.0207

Source: the supplement of paper PMC3334620
